Results published in the supplement of paper PMC7826260.
The list shows a part of the results. Each Rep nickase domain was tested in vitro on the same pool of single strands at 3 µM enzyme and 37 °C for 1 h; the strands have 90 letters, of which the middle is given. Uncut reads are compared with the no-enzyme pool on a log2 scale; uncut sequences lie near 0, cut ones below; no hit call is given. Because reads are shares of a total, they shift together; values above 0 arise when much of the pool is cut.

What was measured:
Experiment in all cases: uncleaved DNA left, log2 of reads against the no-enzyme library (log2 ratio); higher = less cleavage (more negative = more Rep cleavage of the k-mer); sequences stand for … in CTCGTCCG…ACCGGAGA
[1] = tested on: T1, Rep nickase domain of Muscovy duck circovirus
T1 sequence (residues 1-111, tag not shown): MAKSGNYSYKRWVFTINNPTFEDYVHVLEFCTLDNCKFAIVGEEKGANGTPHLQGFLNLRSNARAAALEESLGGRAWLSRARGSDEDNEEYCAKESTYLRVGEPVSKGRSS
Procedure: (§1)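 A pool of 90-nt single-stranded DNAs with seven random bases just before the constant AC of the nick site (name = the seven bases) was cut by 3 µM recombinant His6-SUMO-tagged Rep nickase domain (300 nM DNA, 50 mM HEPES pH 8.0, 50 mM NaCl, 1 mM MnCl2, 1 h, 37 °C, three replicates). Uncut DNA was amplified and sequenced.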

[2] = tested on: T2, Rep nickase domain of banana bunchy top virus
T2 sequence (residues 1-94, tag not shown): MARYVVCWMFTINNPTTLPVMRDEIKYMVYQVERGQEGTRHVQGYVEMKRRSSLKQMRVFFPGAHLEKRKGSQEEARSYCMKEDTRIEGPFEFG
Procedure: as §1

[3] = tested on: T3, Rep nickase domain of cabbage leaf curl virus
T3 sequence (residues 1-116, tag not shown): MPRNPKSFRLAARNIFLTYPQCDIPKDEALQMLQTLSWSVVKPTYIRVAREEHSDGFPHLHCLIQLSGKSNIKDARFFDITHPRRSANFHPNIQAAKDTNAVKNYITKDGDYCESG
Procedure: as §1

[4] = tested on: T4, Rep nickase domain of chickpea chlorotic dwarf virus
T4 sequence (residues 1-124, tag not shown): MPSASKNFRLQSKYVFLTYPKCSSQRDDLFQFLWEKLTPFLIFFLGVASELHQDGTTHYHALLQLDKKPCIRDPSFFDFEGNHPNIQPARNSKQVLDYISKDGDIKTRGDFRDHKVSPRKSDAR
Procedure: as §1

[5] = tested on: T5, Rep nickase domain of faba bean necrotic yellows virus
T5 sequence (residues 1-98, tag not shown): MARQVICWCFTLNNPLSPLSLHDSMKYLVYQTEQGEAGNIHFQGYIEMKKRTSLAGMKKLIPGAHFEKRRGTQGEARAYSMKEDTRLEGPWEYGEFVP
Procedure: as §1

[6] = tested on: T6, Rep nickase domain of maize striate mosaic virus
T6 sequence (residues 1-117, tag not shown): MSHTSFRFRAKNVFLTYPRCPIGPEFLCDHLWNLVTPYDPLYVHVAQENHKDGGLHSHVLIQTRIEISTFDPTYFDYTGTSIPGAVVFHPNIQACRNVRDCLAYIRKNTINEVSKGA
Procedure: as §1

[7] = tested on: T7, Rep nickase domain of porcine circovirus 2
T7 sequence (residues 2-116, tag not shown): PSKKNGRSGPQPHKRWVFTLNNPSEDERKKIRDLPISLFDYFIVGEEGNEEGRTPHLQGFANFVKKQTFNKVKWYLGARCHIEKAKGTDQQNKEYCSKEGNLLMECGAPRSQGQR
Procedure: as §1

[8] = tested on: T8, Rep nickase domain of tomato golden mosaic virus
T8 sequence (residues 1-124, tag not shown): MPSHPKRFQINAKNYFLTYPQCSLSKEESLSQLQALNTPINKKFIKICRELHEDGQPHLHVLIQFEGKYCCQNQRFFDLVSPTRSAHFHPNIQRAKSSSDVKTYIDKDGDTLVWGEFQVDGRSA
Procedure: as §1

[9] = tested on: T9, Rep nickase domain of tomato yellow leaf curl virus
T9 sequence (residues 1-136, tag not shown): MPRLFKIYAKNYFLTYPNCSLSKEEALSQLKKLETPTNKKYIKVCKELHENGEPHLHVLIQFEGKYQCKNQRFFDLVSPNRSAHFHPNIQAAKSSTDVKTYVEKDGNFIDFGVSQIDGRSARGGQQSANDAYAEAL
Procedure: as §1

[10] = tested on: T10, Rep nickase domain of wheat dwarf virus
T10 sequence (residues 1-137, tag not shown): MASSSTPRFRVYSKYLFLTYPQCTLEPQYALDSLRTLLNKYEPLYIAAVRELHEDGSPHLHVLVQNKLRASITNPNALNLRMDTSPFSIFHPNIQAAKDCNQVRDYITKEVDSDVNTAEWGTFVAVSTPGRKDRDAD
Procedure: as §1

| Sequence | uncleaved DNA left (log2) [1] | uncleaved DNA left (log2) [2] | uncleaved DNA left (log2) [3] | uncleaved DNA left (log2) [4] | uncleaved DNA left (log2) [5] | uncleaved DNA left (log2) [6] | uncleaved DNA left (log2) [7] | uncleaved DNA left (log2) [8] | uncleaved DNA left (log2) [9] | uncleaved DNA left (log2) [10] |
| --- | --- | --- | --- | --- | --- | --- | --- | --- | --- | --- |
| AAACGTC | 0.132 | 0.0527 | -0.0159 | -0.662 | 0.137 | -0.867 | 0.0313 | 0.0118 | -0.0151 | -0.027 |
| ATACAAT | 0.0043 | 0.0315 | -0.169 | -1.63 | 0.00454 | -0.446 | -0.0285 | 0.0137 | -0.0159 | -0.0275 |
| GAGGGGG | 0.116 | 0.142 | 0.209 | 0.4 | 0.121 | 0.295 | 0.205 | 0.146 | 0.102 | 0.0156 |
| TTGTCGT | 0.102 | 0.0215 | -0.724 | -0.599 | 0.00121 | -0.979 | -0.062 | 0.0113 | 0.0966 | -0.0409 |
| TGACAGT | 0.0192 | 0.129 | 0.628 | 1.16 | 0.098 | 1.65 | 0.0925 | 0.0272 | 0.0366 | 0.16 |
| TAGGTTG | 0.0317 | -0.129 | -0.0398 | 0.0459 | 0.0535 | -0.126 | 0.0733 | 0.111 | -0.0549 | 0.0809 |
| GGGCCAT | -0.26 | -0.074 | 0.814 | 1.94 | -0.164 | 2.25 | 0.159 | -0.102 | -0.201 | 0.0458 |
| AAGGATG | -0.0237 | -0.0528 | 0.207 | 0.777 | 0.057 | 0.243 | 0.0707 | 0.104 | -0.0709 | 0.0649 |
| TTAATAT | 0.0238 | -0.0501 | 0.246 | -0.918 | -0.0366 | -0.212 | -0.0843 | -0.0421 | 0.143 | -0.0512 |
| GGTTTTC | -0.085 | 0.0952 | 0.301 | 0.953 | 0.0448 | 1.63 | 0.0625 | 0.025 | 0.0814 | 0.0959 |
| GCGTACG | 0.0186 | 0.0582 | -0.453 | -0.177 | -0.0438 | -0.575 | 0.115 | 0.0246 | -0.0554 | -0.0689 |
| AGAGCAG | 0.0057 | -0.0322 | -0.344 | -0.0723 | 0.00257 | -0.645 | 0.0653 | 0.0813 | -0.0785 | -0.0593 |
| TGATGGC | 0.036 | 0.00708 | -0.111 | -0.304 | 0.0288 | -0.851 | 0.0701 | 0.0268 | 0.0509 | -0.0142 |
| CTATGGC | -0.0791 | -0.166 | -0.605 | -0.695 | -0.149 | -1.16 | -0.178 | -0.132 | -0.172 | -0.196 |
| CACGGCA | -0.0506 | 0.081 | -0.34 | -0.662 | 0.0397 | -0.958 | -0.311 | 0.0173 | 0.0782 | -0.1 |
| AGCGGAG | 0.00553 | 0.217 | 0.0679 | 0.458 | 0.105 | 0.417 | 0.199 | 0.278 | 0.0767 | 0.0606 |
| CAGTCCG | -0.0452 | 0.0272 | -0.761 | -0.0381 | 0.114 | -0.764 | -0.129 | -0.132 | 0.0236 | -0.149 |
| GGACCCA | -0.0471 | 0.0687 | 0.506 | 0.984 | 0.00554 | 2 | 0.0875 | -0.0146 | 0.162 | -0.0467 |
| TTTCAGC | 0.0302 | 0.00627 | -0.334 | -0.839 | -0.0328 | -1.1 | 0.0217 | -0.0806 | -0.0342 | -0.0384 |
| CTGCGTG | 0.187 | 0.104 | -0.571 | -0.502 | 0.131 | -1.14 | 0.385 | 0.0714 | 0.194 | 0.153 |
| TAATATG | 0.15 | 0.0327 | -1.4 | -2.32 | 0.0265 | -1.3 | 0.175 | 0.141 | -0.00239 | -0.103 |
| CCGAGGG | -0.081 | -0.0589 | 0.152 | 0.42 | -0.0236 | 0.247 | 0.098 | -0.00568 | -0.215 | 0.0248 |
| TAAGGAT | 0.035 | 0.0694 | 0.141 | 1.59 | 0.0345 | 1.86 | 0.0823 | 0.107 | -0.164 | -0.0438 |
| ACTGAGG | -0.0575 | 0.1 | -0.472 | -0.328 | -0.0791 | -1.04 | 0.0796 | -0.0531 | -0.0141 | -0.0765 |
| AAACTAA | 0.0821 | 0.0638 | -0.111 | -1.15 | 0.0698 | -0.531 | 0.0163 | 0.152 | -0.0673 | 0.114 |
| ATTCCCG | -1.65 | -0.049 | -0.953 | -0.158 | -0.109 | -1.11 | -2.8 | -0.0471 | 0.0303 | -0.135 |
| CGGTCCT | -0.388 | -0.128 | 0.00986 | -0.704 | -0.12 | 0.503 | -1.36 | -0.101 | -0.0931 | -0.0362 |
| TGCAGCC | -0.0618 | -0.15 | -0.159 | -0.183 | -0.0815 | -0.774 | 0.0701 | -0.136 | -0.138 | -0.186 |
| CCCCACA | -0.105 | -0.0158 | -0.0257 | -1.43 | -0.134 | -0.603 | -0.137 | -0.0354 | -0.17 | -0.0348 |
| AGAGGTC | 0.165 | -0.0318 | 0.274 | 0.78 | -0.00469 | 0.631 | 0.0316 | 0.107 | -0.113 | -0.0159 |
